Assay results as given in PubChem BioAssay AID504832 (National Center for Advancing Translational Sciences (NCATS), 2011).
In all, about 310,000 compounds went through this assay and about 18,000 (5.8%) were called active. The inconclusive results got no clear call from the source; some entries with a clear call stand among them for comparison. Calls come from the whole dose curve; as a rule, active = well fitted inhibition curve with a large enough effect; inconclusive = small, poorly fitted or top-dose-only effect, or another doubt; inactive = no such curve, though single readings can be large or run the other way. No potency is given beside an inconclusive call; the fits are too rough.

Assay: Primary qHTS for delayed death inhibitors of the malarial parasite plastid, 48 hour incubation
Settings: P. falciparum luciferase growth in erythrocytes; series mostly up to 28.7 µM
In short: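 Growth was read as firefly luciferase luminescence after a 48 h, 37 C, 5% CO2 exposure of compounds to reporter-bearing P. falciparum cultures (0.1% parasitemia, 2% hematocrit final) in Albumax-supplemented RPMI 1640.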
Potency is the fitted concentration of half-maximal effect; tags give direction and shape of the fitted curve.

SMILES	Potency
COC(=O)C1CCN(C(=O)NC2CC(=O)N(c3ccc4c(c3)OCCO4)C2)CC1 (stereo unspecified)	inconclusive [inhibitor, partial curve]
COc1cccc(C2=NN(C(=O)c3ccco3)C(O)(C(F)(F)F)C2)c1 (stereo unspecified)	active: 4.15 µM
CC1(c2ccccc2)NC(=O)N(CC(=O)NNC(=O)c2cccc(Cl)c2)C1=O (stereo unspecified)	inactive
Cc1nc(N)sc1C(=O)NN	inactive
Cc1nnsc1S(=O)(=O)Cc1ccccc1Cl	inconclusive [inhibitor, full curve, poor fit]
O=C(CNCC1CCCO1)Nc1ccccc1N1CCCCCC1 (stereo unspecified)	inconclusive [inhibitor, single point]
COc1ccc(S(=O)(=O)CCC(=O)O)cc1	inconclusive [inhibitor, single point]
O=C(Nc1cccc(Cl)c1)c1cc(S(=O)(=O)N2CCCCC2)c[nH]1	inactive
Cc1cccc(C)c1NC(=O)COC(=O)C1Cc2ccccc2CN1C(=O)c1ccccc1 (stereo unspecified)	inconclusive [inhibitor, partial curve, poor fit]
CCN(CC)CCCNC(=O)c1ccc(N2CCCCC2)c(NS(=O)(=O)c2ccc(C)cc2)c1	inconclusive [inhibitor, single point]
CSCCC(NC(=O)COc1ccccc1)C(=O)N1CCCC(C(F)(F)F)C1 (stereo unspecified)	inconclusive [inhibitor, partial curve, poor fit]
CC(C)S(=O)(=O)N1CCCC(C(=O)c2cccc(Cl)c2)C1 (stereo unspecified)	inactive
COc1cc2ccccc2cc1C(=O)N1CCCC(C(F)(F)F)C1 (stereo unspecified)	active: 0.522 µM
COc1ccc(CNCCc2c(C)[nH]c3ccc(OC(F)(F)F)cc23)c(OC)c1	active: 5.22 µM
COc1ccc(OC)c(S(=O)(=O)NNC(=S)Nc2ccc3c(c2)OCO3)c1	inactive
CCc1c(C)nc2c(-c3ccccc3OC)c(C)[nH]n2c1=O	inactive
COC(=O)c1c(NC(=O)CS(=O)(=O)c2ccccc2)sc(C)c1C	inconclusive [inhibitor, partial curve]
Clc1ccccc1Cc1noc(CN2CCN(c3cnccn3)CC2)n1	inconclusive [inhibitor, partial curve, poor fit]
CCc1ccc(-n2cc(-c3ccc(F)cc3)[n+]3c2SCCC3)cc1	active: 1.47 µM
O=c1[nH][nH]c(=O)c2c(NS(=O)(=O)c3ccccc3)cccc12	inactive
COc1ccc(N2C(=O)C(Cl)=C(N3CCN(Cc4ccccc4)CC3)C2=O)cc1	inconclusive [inhibitor, single point]
COC(=O)c1ccc(CO/N=C/c2ccc(OC)cc2)o1	inactive
CCOC(=O)c1ccc(NC(=S)N(CCCN2CCN(CC)CC2)Cc2cccs2)cc1	active: 8.28 µM
CSCCC(N)C(=O)O (stereo unspecified)	inactive
CC(C)C(=O)NCC(c1ccc2c(c1)OCO2)N1CCOCC1 (stereo unspecified)	inactive
CC(C)[C@H](NC(=O)c1ccco1)C(=O)Nc1ccc(OC(F)F)cc1	inactive

SMILES	Potency
NC(=O)c1ccc(NC(=O)COC(=O)/C=C/c2cn(-c3ccccc3)nc2-c2cccnc2)cc1	inactive
O=C(Nc1nccs1)c1ccc(CSc2ccccc2)o1	inactive
O=C1C(=C(c2ccccc2)c2ccccc2)Nc2ccccc21	inconclusive [inhibitor, single point]
O=S(=O)(NC1CCC(NS(=O)(=O)c2c(F)cccc2F)CC1)c1ccc2c(c1)OCCO2 (stereo unspecified)	inactive
COc1ccccc1CNC(=O)Cn1cccc1C(=O)c1ccccc1C	inactive
Cc1coc2cc3oc(=O)c(CCC(=O)N4C[C@H]5C[C@@H](C4)c4cccc(=O)n4C5)c(C)c3cc12	inconclusive [inhibitor, partial curve]
CCOC(=O)c1cc2occc2n1CC(=O)NC1CCCCC1C (stereo unspecified)	inconclusive [inhibitor, single point]
Oc1ccc(N2CCN(C(c3ccccn3)c3nnnn3C3CCCC3)CC2)cc1 (stereo unspecified)	active: 10.4 µM
CC(C)CCNc1nc(N)c([N+](=O)[O-])c(N2CCCCCC2)n1	active: 3.7 µM
CC(C)N1CCN(Cc2cn[nH]c2C2CCCCC2)CC1CCO (stereo unspecified)	inactive
Cc1ccc(-c2ccc(=O)n(CC(=O)NCCN(C)C)n2)cc1	inactive
COc1ccccc1C(=O)COC(=O)c1nc(Cl)ccc1Cl	inactive
O=C(NC(=S)Nc1ccc(N2CCOCC2)cc1)c1cccc(Cl)c1Cl	inactive
Cc1c2c(n3c(nc4ccccc43)c1C#N)N(CCN(C)C)CC2	active: 2.08 µM
O=C(COc1ccc(Cl)cc1)Nc1ccccc1C(=O)NCc1cccnc1	inconclusive [inhibitor, single point]
COc1ccc(CNC(=O)C2=CC(c3ccc(OC)c(OC)c3)=NS(=O)(=O)N2C)cc1	inactive
O=C(NCc1cccs1)C1CCN(S(=O)(=O)c2cccs2)CC1	inconclusive [inhibitor, full curve, poor fit]
Cc1cc2c(c(=O)o1)C(C1C=CCCC1)C(C#N)=C(N)O2 (stereo unspecified)	inactive
COc1cccc(CNC(=O)CCCn2ccc3cc(S(=O)(=O)N4CCCC4)ccc32)c1	inconclusive [inhibitor, partial curve]
CCC(CC)C(=O)Nc1cccc(-c2nc3ccccc3o2)c1	inconclusive [inhibitor, single point]
C[C@]12O[C@H](C[C@]1(O)CO)n1c3ccccc3c3c4c(c5c6ccccc6n2c5c31)CNC4=O	active: 0.169 µM
COc1ccc(S(=O)(=O)N(CC(=O)N/N=C/c2cccs2)c2cc(C)cc(C)c2)cc1OC	inconclusive [inhibitor, single point]
CCN(CC(=O)Nc1ccc(NC(C)=O)cc1)C(=O)c1cccnc1Sc1ccc(C)c(C)c1	inconclusive [inhibitor, single point]
CSc1nnc2c(n1)OC=Nc1ccccc1-2	inactive
Cc1ccc(S(=O)(=O)N2CCCC2CNC(=O)c2ccccc2)cc1 (stereo unspecified)	inconclusive [inhibitor, partial curve]
